Results taken from the supplement of paper PMC12067093, “Discovery and optimisation of a covalent ligand for TRIM25 and its application to targeted protein ubiquitination” (Chemical Science, 2025).
Of roughly 21,000 targets only a part is listed; those with the largest changes were picked by preference.

Compound: Cc1cc(ccc1-c1ccccc1)C(=O)N1CCCN(CC1)C(=O)CCl [compound 10]
Test: probe-labelled cysteine peptide fold change vs DMSO (competition) (log2 fold change); higher = less target engagement (more negative = stronger competition)
Settings: THP-1, incubation time: 4 h
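Note: competitive profiling in live THP-1 cells: cysteine peptides tagged with an iodoacetamide desthiobiotin (IA-DTB) probe, intensity after compound treatment relative to DMSO-treated cells.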

Chain of UniProt P27708 (P27708 whole entry, looked up): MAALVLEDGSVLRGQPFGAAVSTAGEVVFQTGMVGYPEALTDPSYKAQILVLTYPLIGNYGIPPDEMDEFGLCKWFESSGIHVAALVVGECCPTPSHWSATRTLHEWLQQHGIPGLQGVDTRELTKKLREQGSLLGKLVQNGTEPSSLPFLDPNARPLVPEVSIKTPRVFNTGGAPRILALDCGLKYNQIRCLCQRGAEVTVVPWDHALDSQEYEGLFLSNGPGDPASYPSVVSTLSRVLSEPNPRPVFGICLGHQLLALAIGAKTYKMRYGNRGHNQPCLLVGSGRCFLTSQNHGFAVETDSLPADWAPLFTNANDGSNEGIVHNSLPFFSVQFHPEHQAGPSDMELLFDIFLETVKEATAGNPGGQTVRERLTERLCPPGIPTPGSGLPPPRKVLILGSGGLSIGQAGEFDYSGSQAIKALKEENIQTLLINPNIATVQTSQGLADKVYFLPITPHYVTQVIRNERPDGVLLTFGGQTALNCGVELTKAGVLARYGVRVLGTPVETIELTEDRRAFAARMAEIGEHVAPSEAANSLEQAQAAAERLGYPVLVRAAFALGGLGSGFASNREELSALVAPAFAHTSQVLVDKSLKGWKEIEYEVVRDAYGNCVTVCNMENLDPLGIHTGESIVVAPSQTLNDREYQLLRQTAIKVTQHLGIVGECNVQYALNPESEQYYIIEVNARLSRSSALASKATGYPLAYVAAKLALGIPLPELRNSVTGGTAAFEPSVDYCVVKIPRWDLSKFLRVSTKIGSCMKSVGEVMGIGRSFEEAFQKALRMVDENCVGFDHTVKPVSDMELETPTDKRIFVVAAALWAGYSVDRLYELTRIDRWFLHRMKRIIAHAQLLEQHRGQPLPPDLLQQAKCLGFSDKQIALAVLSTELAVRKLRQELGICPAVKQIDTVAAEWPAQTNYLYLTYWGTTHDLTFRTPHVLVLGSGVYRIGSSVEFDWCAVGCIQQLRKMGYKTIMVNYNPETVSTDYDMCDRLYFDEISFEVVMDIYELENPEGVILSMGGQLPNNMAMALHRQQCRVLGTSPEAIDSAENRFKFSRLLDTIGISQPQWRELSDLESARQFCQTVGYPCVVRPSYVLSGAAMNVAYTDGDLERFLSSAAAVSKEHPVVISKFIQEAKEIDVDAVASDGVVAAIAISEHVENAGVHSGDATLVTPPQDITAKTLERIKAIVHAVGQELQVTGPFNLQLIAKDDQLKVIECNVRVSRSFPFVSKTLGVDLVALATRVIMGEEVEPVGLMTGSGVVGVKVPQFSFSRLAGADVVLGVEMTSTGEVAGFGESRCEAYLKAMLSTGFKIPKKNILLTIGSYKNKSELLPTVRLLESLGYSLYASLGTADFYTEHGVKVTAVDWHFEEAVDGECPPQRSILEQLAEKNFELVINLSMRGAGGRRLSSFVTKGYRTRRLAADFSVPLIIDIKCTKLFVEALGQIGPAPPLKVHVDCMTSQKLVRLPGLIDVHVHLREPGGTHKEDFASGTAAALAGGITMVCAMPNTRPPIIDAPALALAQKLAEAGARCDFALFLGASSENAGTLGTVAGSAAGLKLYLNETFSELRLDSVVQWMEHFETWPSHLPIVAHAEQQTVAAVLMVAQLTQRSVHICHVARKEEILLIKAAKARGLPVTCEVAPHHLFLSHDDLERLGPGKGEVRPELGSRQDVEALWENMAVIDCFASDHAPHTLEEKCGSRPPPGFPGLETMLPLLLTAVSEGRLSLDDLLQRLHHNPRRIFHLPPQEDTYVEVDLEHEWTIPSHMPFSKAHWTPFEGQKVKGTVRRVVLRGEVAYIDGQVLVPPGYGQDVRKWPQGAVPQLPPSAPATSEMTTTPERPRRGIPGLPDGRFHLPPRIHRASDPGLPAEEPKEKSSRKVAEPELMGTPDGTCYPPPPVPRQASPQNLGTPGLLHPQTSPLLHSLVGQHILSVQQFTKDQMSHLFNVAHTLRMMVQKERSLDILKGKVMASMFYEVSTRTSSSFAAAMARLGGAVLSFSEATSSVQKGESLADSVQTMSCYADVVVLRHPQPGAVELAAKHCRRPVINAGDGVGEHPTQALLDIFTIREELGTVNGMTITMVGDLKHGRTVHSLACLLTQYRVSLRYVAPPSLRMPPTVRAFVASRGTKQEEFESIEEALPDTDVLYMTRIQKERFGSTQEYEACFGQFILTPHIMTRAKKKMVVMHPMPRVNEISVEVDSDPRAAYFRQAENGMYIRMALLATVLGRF
Chain of UniProt P45973 (P45973 whole entry, looked up): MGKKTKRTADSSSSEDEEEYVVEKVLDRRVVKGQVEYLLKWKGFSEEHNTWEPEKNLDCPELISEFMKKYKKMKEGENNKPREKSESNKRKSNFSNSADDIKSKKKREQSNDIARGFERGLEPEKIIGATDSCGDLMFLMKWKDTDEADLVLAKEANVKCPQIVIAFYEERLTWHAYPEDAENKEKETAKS
Chain of UniProt Q86VP6 (Q86VP6 whole entry, looked up): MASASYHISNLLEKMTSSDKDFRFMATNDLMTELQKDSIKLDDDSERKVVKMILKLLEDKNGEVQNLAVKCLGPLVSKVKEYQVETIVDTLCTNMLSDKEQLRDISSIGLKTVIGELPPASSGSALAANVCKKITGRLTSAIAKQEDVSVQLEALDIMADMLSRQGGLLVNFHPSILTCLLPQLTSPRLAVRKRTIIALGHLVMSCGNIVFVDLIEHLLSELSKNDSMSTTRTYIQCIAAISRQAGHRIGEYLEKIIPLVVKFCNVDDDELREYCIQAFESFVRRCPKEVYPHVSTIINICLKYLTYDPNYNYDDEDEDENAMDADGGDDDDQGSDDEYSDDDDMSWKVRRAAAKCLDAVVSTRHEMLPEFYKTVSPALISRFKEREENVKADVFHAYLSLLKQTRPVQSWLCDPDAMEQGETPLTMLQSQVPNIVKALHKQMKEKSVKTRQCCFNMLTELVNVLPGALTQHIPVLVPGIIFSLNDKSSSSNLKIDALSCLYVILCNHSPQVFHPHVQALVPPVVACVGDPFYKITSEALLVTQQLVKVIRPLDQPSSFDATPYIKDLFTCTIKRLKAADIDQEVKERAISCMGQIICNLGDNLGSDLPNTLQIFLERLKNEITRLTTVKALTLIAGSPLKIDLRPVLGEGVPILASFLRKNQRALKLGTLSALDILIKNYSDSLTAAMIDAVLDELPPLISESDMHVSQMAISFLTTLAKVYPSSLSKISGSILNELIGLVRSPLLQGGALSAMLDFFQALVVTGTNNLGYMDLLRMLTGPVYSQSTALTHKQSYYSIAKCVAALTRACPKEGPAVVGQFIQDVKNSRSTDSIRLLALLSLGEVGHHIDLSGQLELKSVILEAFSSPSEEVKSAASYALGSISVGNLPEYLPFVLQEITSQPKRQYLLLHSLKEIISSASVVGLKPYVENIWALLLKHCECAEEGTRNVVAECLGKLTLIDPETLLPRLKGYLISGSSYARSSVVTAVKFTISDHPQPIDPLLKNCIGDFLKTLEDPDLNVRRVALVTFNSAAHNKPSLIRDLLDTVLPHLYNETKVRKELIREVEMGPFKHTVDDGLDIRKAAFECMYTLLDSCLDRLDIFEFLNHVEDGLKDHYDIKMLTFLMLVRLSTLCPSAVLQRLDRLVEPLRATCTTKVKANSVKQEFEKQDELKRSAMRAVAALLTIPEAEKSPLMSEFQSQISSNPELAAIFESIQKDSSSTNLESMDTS
Chain of UniProt Q7Z569 (Q7Z569 whole entry, looked up): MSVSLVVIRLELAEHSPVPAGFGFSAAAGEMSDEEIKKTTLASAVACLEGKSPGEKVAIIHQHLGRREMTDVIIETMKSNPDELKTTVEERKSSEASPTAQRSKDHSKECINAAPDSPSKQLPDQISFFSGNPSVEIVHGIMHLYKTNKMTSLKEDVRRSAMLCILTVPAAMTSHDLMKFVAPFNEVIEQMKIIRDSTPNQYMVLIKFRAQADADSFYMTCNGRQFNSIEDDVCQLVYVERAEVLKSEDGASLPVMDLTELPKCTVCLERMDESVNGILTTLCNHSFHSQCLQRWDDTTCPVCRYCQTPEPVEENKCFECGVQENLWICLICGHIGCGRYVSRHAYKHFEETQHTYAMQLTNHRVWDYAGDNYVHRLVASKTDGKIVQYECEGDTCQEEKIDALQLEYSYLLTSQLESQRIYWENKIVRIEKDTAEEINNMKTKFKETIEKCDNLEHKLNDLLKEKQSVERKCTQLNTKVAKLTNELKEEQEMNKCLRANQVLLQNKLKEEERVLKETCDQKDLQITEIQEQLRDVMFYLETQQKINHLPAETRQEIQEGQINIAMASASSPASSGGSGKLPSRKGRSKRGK
Chain of UniProt O76031 (O76031 whole entry, looked up): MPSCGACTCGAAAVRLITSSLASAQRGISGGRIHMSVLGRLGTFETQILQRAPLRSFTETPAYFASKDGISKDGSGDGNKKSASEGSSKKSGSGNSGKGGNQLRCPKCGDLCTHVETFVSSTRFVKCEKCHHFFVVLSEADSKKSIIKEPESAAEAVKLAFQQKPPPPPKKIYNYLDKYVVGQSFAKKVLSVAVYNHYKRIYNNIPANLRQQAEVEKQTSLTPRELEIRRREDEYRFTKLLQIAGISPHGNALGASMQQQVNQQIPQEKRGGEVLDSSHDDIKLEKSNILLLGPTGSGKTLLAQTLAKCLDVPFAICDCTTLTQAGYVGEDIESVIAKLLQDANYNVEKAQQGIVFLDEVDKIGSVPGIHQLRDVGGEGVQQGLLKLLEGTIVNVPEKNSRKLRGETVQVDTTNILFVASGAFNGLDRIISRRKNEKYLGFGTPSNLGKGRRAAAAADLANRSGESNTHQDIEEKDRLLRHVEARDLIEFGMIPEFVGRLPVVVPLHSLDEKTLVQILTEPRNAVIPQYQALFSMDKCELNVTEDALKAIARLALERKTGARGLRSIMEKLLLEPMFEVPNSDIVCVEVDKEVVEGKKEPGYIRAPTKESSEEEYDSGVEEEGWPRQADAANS
Chain of UniProt Q9GZN8 (Q9GZN8 whole entry, looked up): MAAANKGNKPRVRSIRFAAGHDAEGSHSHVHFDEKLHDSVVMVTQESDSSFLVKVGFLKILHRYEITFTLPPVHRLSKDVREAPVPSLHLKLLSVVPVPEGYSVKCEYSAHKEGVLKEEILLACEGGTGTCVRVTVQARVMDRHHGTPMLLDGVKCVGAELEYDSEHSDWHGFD

| Target | probe-labelled cysteine peptide fold change (10 µM) | probe-labelled cysteine peptide fold change (50 µM) |
| --- | --- | --- |
| BRAP_Q7Z569_110_ECINAAPDSPSK (UniProt Q7Z569) | -0.14 | -0.673 |
| BCLAF1_Q9NYF8_688_CDSADLRHDIDR (UniProt Q9NYF8) | -0.675 | -1.75 |
| CLASP1_Q7Z460_509_CYWGFHSHFSR (UniProt Q7Z460) | 0.149 | 0.231 |
| BIRC6_Q9NR09_1319_CAMLQFSEFHEK (UniProt Q9NR09) | -0.0296 | -0.189 |
| CENPF_P49454_621_TLFSCWK (UniProt P49454) | 0.24 | 0.202 |
| CEP290_O15078_998_TSNLEHLECENISLK (UniProt O15078) | -0.0327 | 0.118 |
| CCAR2_Q8N163_644_GEASEDLCEMALDPELLLLRDDGEEEFAGAK (UniProt Q8N163) | 0.116 | 0.202 |
| CCDC22_O60826_567_YLAALHENCSQLIQTIEDTGTIMR (UniProt O60826) | 0.507 | 0.935 |
| BRAT1_Q6PJG6_513_LCHPCWEVR (UniProt Q6PJG6) | -0.507 | -2.32 |
| CARS2_Q9HA77_526_QPLLEACDTLR (UniProt Q9HA77) | 0.163 | 0.255 |
| BIRC6_Q9NR09_3673_RHHVPQQCNK (UniProt Q9NR09) | -0.383 | -1.8 |
| C20orf27_Q9GZN8_131_EGVLKEEILLACEGGTGTCVR (UniProt Q9GZN8) | 0.163 | -0.157 |
| BLM_P54132_396_LLDCGNELLQQR (UniProt P54132) | 0.119 | 0.105 |
| BLM_P54132_444_YRPDSLDGPMEGDSCPTGNSMK (UniProt P54132) | -0.208 | -0.421 |
| CAND1_Q86VP6_1007_NCIGDFLK (UniProt Q86VP6) | 0.0435 | -0.151 |
| BLMH_Q13867_269_ICLVNDPRPQHK (UniProt Q13867) | -0.0458 | 0.0884 |
| CCT8_P50990_148+149_KAHEILPNLVCCSAK (UniProt P50990) | 0.107 | -1.12 |
| CHURC1_Q8WUH1_91_NCHHVIAR (UniProt Q8WUH1) | 0.0974 | -0.0139 |
| CHD1_O14646_376_NASPEDVEYYNCQQELTDDLHK (UniProt O14646) | -0.182 | -0.155 |
| CAD_P27708_1215_VIECNVR (UniProt P27708) | 0.174 | 0.123 |
| CLPX_O76031_538_CELNVTEDALK (UniProt O76031) | -0.194 | -0.0926 |
| CBX5_P45973_59_NLDCPELISEFMK (UniProt P45973) | 0.16 | 0.0939 |
| BMP2K_Q9NSY1_197_VENILLNDGGNYVLCDFGSATNK (UniProt Q9NSY1) | 0.0762 | 0.0663 |
| CDK13_Q14004_644_CLLADLPLPPELPGGDDLSK (UniProt Q14004) | -0.13 | -0.34 |
